Whole data set: some 33,000 sequences, median “E-score (-0.5 to 0.5)” near -0.01, cut for the highest 2% near 0.26. Some of the results follow.
target: Ste12 (UniProt P13574); assay: PBM E-score (8-mer binding enrichment) (E-score (-0.5 to 0.5)); higher = stronger / more preferred TF binding; most listed sequences are background and not binding sites; details: protein concentration: 200 nM; construct: GST-DNA-binding domain
Method: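 Universal 'all 10-mer' protein binding microarrays (Agilent AMADID 015681) probed with GST-tagged S. cerevisiae TFs (full-length or DBD) made by in vitro transcription/translation (PURExpress), about 100-200 nM. Bound TF was detected with fluorescent anti-GST. Each ungapped 8-mer (which stands for itself and its reverse complement) is scored by the PBM enrichment score (E-score), a modified Wilcoxon-Mann-Whitney statistic from -0.5 to +0.5, computed with the Universal PBM Analysis Suite. Scale: above 0.35 generally sequence-specific binding.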

Row | Sequence | PBM E-score
1 | GGTCATAC | -0.122
2 | GCCCCTCA | 0.0515
3 | CTGGAGTA | 0.0818
4 | CTGTGCGA | -0.0121
5 | AAACAGCA | 0.148
6 | AACAAAGA | 0.166
7 | CTAGACCC | -0.1
8 | TGTTTCAA | 0.484
9 | ATTTCCGA | 0.2
10 | GCAATATA | 0.149
11 | AAGTCTGC | -0.0539
12 | AAAGCGCG | -0.167
13 | ATCCCGGC | 0.0289
14 | CTATCGGA | -0.0218
15 | AAGCACAC | -0.175
16 | CTAATCCC | -0.0288
17 | CAGGCTGG | -0.0209
18 | AGACCTTG | -0.0557
19 | CGATCTAG | -0.0912
20 | ACTCCGAT | -0.124
21 | ATGGGCTC | -0.0877
22 | ACTAATAA | 0.0582
23 | CGCGTACG | 0.0078
24 | AAACCTCC | -0.0187
25 | AGTTCTGC | -0.15

Row | Sequence | PBM E-score
26 | ACGCCTAA | 0.0463
27 | ACCCCCAA | -0.153
28 | AGACTTCG | -0.151
29 | GCTACGGA | -0.12
30 | CAACACGC | -0.247
31 | CGCCCATC | -0.0222
32 | CGTGAGTC | -0.333
33 | CGCCCATA | 0.0427
34 | TAGTCAGA | -0.153
35 | GCCGTGTA | -0.066
36 | GGTGTGAC | 0.0514
37 | CAACACTC | -0.0395
38 | ATTGATAC | 0.255
39 | CACATAAA | 0.115
40 | CCATGGGC | -0.092
41 | CATTCTCG | 0.0187
42 | ACGTCATC | -0.243
43 | GCCGACCC | -0.215
44 | ACTGTTGC | -0.00433
45 | GAGTCAAA | -0.0609
46 | AGCTAAGA | 0.0238
47 | CAGAGCCC | -0.129
48 | CCGTGGGA | -0.179
49 | CCTACCTA | -0.0846
50 | AAAGCCGA | -0.0348

Row | Sequence | PBM E-score
51 | GGCGGTCA | -0.138
52 | TAGTTAAA | 0.133
53 | CATGATCC | 0.198
54 | GCGCCGAA | 0.011
55 | ACCCAGCC | -0.185
56 | AATTGCAG | 0.0243
57 | ACGGCACG | -0.215
58 | CGTATGTA | -0.0515
59 | TACTCACA | 0.00428
60 | GAGGGTCC | -0.093
61 | AACTCATG | 0.129
62 | CCTTGACC | -0.137
63 | GGCGAGAA | 0.0222
64 | AGTCCGTG | -0.204
65 | CTGAACTA | -0.0292
66 | CGTCGTAG | 0.00142
67 | CGAGCGAA | 0.0454
68 | TTGCCCAA | -0.0393
69 | GTCGAGAC | 0.0464
70 | GAAATGTA | 0.176
71 | CGTCTGCA | -0.113
72 | CGAGTGAA | 0.0152
73 | CGCTCAGC | -0.0662
74 | CCACGTCA | -0.182
75 | GATCGTGA | -0.113

Row | Sequence | PBM E-score
76 | CAGATACG | -0.00918
77 | AAACGCCT | 0.109
78 | AGATATGA | 0.141
79 | AAAAAGTT | 0.214
80 | GGACATCA | 0.0203
81 | AGATGTTA | -0.0366
82 | TGAATTCA | 0.0662
83 | AGGGTCAC | -0.274
84 | CCAATCCG | 0.281
85 | GAGGGTTA | -0.06
86 | TAAATGTA | 0.13
87 | AGCAAATC | 0.0689
88 | GGAGAGGA | -0.252
89 | AATGTAAC | 0.187
90 | CCCCGCAC | 0.0613
91 | TGACCGCA | 0.0567
92 | CAGAATAC | 0.0945
93 | AAATCTCA | 0.155
94 | GTCTGAGA | 0.0877
95 | GACTTCCA | -0.155
96 | CATCTCAA | 0.0216
97 | CTCGAAGA | -0.138
98 | ATCTAGAC | -0.0851
99 | ACAGGAGG | -0.183
100 | GCGACGGA | -0.0402

Row | Sequence | PBM E-score
101 | ATAGAGCC | -0.0936
102 | AGATATAC | -0.0578
103 | AATGGAGG | -0.0279
104 | CTGCGAAC | -0.101
105 | AAGGACAG | -0.0445
106 | GTTAGGTA | 0.107
107 | ATATCGTA | 0.122
108 | ATCCGCAG | 0.0339
109 | CGCTATAG | -0.135
110 | GCACGTAA | -0.128
111 | GTCTTCCA | -0.122
112 | ACATAATG | 0.192
113 | ATAATTAC | 0.131
114 | ACGATAAT | 0.149
115 | GTCTTCAC | -0.195
116 | GGGGCCTA | -0.135
117 | CTATCAAG | 0.0393
118 | GTAGTAAA | 0.0578
119 | ACAACTAC | 0.116
120 | AGAAACGC | -0.0309
121 | ATGTCCGG | -0.0692
122 | ACCGGCTA | -0.119
123 | GGAAGCGA | -0.0821
124 | GCTTGACC | -0.172
125 | AAGGATAA | -0.00803

Row | Sequence | PBM E-score
126 | AAAGGAGA | 0.0107
127 | ATATTAGA | 0.0159
128 | GTGTTAAA | 0.0458
129 | CCATGCCG | -0.0654
130 | AAAGACTC | -0.162
131 | CCAAGGTA | -0.0647
132 | GGCAGGTA | -0.224
133 | ATCCGAAT | 0.192
134 | CTGTGATA | -0.00798
135 | CCGGAACG | 0.0336
136 | AAGGATCT | -0.0695
137 | AGCAGGAA | -0.194
138 | ATAGACTG | -0.155
139 | CGAAACTC | 0.121
140 | GAATCATC | 0.112
141 | CATCTGAA | 0.2
142 | AGTCAGGC | 0.154
143 | GCAAGAGA | -0.175
144 | GGCGGTTA | -0.022
145 | GCTCGTAC | -0.0219
146 | ACCGATTC | 0.0153
147 | TCGAACCA | 0.166
148 | CGTCGTCA | -0.11
149 | CTATCAGA | 0.185
150 | ACGCGCGC | 0.122

Row | Sequence | PBM E-score
151 | AAACCCCA | 0.103
152 | AGCATTAA | 0.0565
153 | CTGTGGTC | -0.223
154 | ACGACCAG | -0.127
155 | TGTATTAA | 0.256
156 | AATACATG | 0.0375
157 | CGATATTC | 0.0243
158 | ACCTCTAA | 0.0525
159 | AGGCTGGG | -0.125
160 | GGTCCCGA | 0.0669
161 | CGCGCTAC | 0.00148
162 | GCCGGATA | 0.027
163 | GGGTTTCA | 0.435
164 | TGTCAACA | -0.079
165 | ATAGCCTC | -0.00677
166 | AAACTTGG | 0.185
167 | ACTCGGTG | -0.152
168 | ACACGGAG | 0.00989
169 | CTCTTTCC | 0.00615
170 | CCTACTGA | 0.121
171 | ATGTAACC | 0.143
172 | CAGACAAC | -0.0294
173 | GTGGACAA | 0.0673
174 | CGAGTGTC | -0.157
175 | AAGGGTCC | -0.131

Row | Sequence | PBM E-score
176 | CTATTACA | 0.181
177 | GGGTCGGA | 0.0687
178 | ACTGGTGG | -0.107
179 | GAACCTCA | -0.136
180 | CGATCGCC | 0.168
181 | CCAGCTAC | -0.091
182 | GAAGTACA | -0.186
183 | AAAGGAGC | -0.00444
184 | CACGCTAC | -0.124
185 | TAAGCCCA | 0.17
186 | AACGTCCC | -0.0827
187 | AAGACTCC | -0.26
188 | ACTAGCCA | -0.102
189 | CGGGTGTC | -0.0974
190 | CAGCTTTA | 0.131
191 | AGCGCCTA | -0.00958
192 | CACCTGAC | 0.13
193 | ATAAGCTG | 0.00187
194 | ATTCGGGG | 0.163
195 | CGGCTCCC | -0.133
196 | CGCGCTTC | 0.161
197 | GCCAAGAA | 0.0608
198 | TCTCAAAA | 0.275
199 | CAAGTGGC | 0.0152
200 | AACCATAT | 0.13

Row | Sequence | PBM E-score
201 | CGGAGCGA | 0.135
202 | GGTTAGGA | -0.0563
203 | AACAGCTT | -0.00657
204 | GGAGTAAA | 0.0636
205 | ATCGCGCC | 0.18
206 | GGTGCGGA | 0.0146
207 | AATGATGT | 0.0856
208 | GAAGCCTC | -0.191
209 | TGAGTCCA | -0.131
210 | AGTTCCGG | -0.0125
211 | AACTACAA | 0.127
212 | GCCTTACC | -0.25
213 | GCACCGTA | -0.137
214 | CTAGTATA | 0.0544
215 | AGGGTACT | -0.141
216 | ATCCAGCG | -0.151
217 | CGCACAAA | 0.00895
218 | ACGAACCT | -0.00746
219 | ATTCGGAA | 0.125

From the supplement of paper PMC3334620
